Test results from paper PMC12136788.
Some of the results follow.

B1: ENSG00000164574:stop:overlap|stop_codon|ENSG00000164574|stop_codon|NA|stop_codon (ssRNA)
RNA: GGGAGUUCUACAGUCCGACGAUCUCGACGACUUCAGUGAUCGAGAUCUGCCGACUGCAUCAACUCCCUCUCCCUUUGUGUGCUAGAGACCCUUCAGCAUACGCAGCUCUGGGAUGAUGCCAGGAUUCCAUUUGGAGACUUCUGCAACAGAGGAUUGAGCAUCA
B2: chr11:119418629:119418730:-|3pUTR|ENSG00000154096|msi1|FALSE|unique (ssRNA)
RNA: GGGAGUUCUACAGUCCGACGAUCCCUCAGAGGCCUUGGGGCAUGACCCAGUGAAGAUGCAGGUUUGACCAGGAAAGCAGCGCUAGUGGAGGGUUGGAGAAGGAGGUAAAGGAUGAGGGUUCAUCAUCCCUCCCUGCCUAAGGACAACAGAGGAUUGAGCAUCA
B3: chr10:30461265:30461366:+|3pUTR|ENSG00000107968|unk|total|mutant (ssRNA)
RNA: GGGAGUUCUACAGUCCGACGAUCUCUUUGAGCCUUUAUUGGUAAAUUCUGGUAUACAUUGAAUUCAUUAUAAUUUGGGUGACCCGAACAACUUGAAGAUUGCCGCAAUAAGCUGGACCCGUGUCCUAAAAAUGGCUAACUGAUCAACAGAGGAUUGAGCAUCA
B4: chr11:110579372:110581225:-|CDS|ENSG00000137727|control|control|control (ssRNA)
RNA: GGGAGUUCUACAGUCCGACGAUCUAGUCAGAGCUCUUCUGGUUCUCUGCCUUGGGAAAGAGCCUCAGCCAGCUCUUGGACUCUAGAGGAUGCGACCAGCCCAGACUCAGGGCCUACAGUGGUCUGCGACAUUGAGGACAGGUACAACAGAGGAUUGAGCAUCA
B5: chr15:100649042:100649144:+|3pUTR|ENSG00000183475|unk|FALSE|unique (ssRNA)
RNA: GGGAGUUCUACAGUCCGACGAUCUACCUCUGCUUUUCUUUUGCUGUGCUCUUGUUUUUAACUUAUUUUUUUUUUAACAACUGUAGUACACUACCCUGAGACACUGCAUCUCGAUUUCUAUCUCUAGUUAGAGUUGUACUUUUACAACAGAGGAUUGAGCAUCA
B6: chr9:34241424:34241533:+|CDS|ENSG00000165006|unk|FALSE|unique (ssRNA)
RNA: GGGAGUUCUACAGUCCGACGAUCAACCCCAUCCUCGCCAGCUUGCAGCACAACAGCAUCCUCACACCAACUCGGGUCAGCAGUAGUGCCACGAAACAGAAAGUUCUCAGCCCACCUCACAUAAAGGCGGAUUUCAAUCUUGCUCAACAGAGGAUUGAGCAUCA
B7: ENSG00000198589:be:win_2551|CDS|ENSG00000198589|bound_else_gene|NA|bound_elsewhere_windowed (ssRNA)
RNA: GGGAGUUCUACAGUCCGACGAUCAAUAACAGUAGAGAAAACAGGAGGAGCUUGCUACAAUGCUCUGUGUGGCAAGAAUGGAUGCUUUCUCUCUGCUAUUUUAAUCCUAAGAAUUCAGAUGAGCAAAAGAUAACAGAAAUGGUACAACAGAGGAUUGAGCAUCA
B8: chr14:70725707:70725808:-|3pUTR|ENSG00000006432|unk|FALSE|unique (ssRNA)
RNA: GGGAGUUCUACAGUCCGACGAUCGUCGAAUAUCAGCUAUUUCAUAUGGUUCACCCUAAUGUACCUGCCUCUCUCUUUGGCUUUAGGUCUGAGAAUGACUUGUCUUUGUCAAGGUAUACUAUUGUUAGAAACGCAUUACCAAAUCAACAGAGGAUUGAGCAUCA
B9: chr10:101781316:101781432:-|3pUTR|ENSG00000107833|unk|total|mutant (ssRNA)
RNA: GGGAGUUCUACAGUCCGACGAUCCCCACCUGCCUGUGAGAAUUGGAGGUCCGUGCCUGAAGCUCAGAGCUACACAUUUUUAACCGUUUUUACAUUUUUGGAUAAAGGUUGAAAUAAAGUGGUGUGGAGUUUUUGCAGCUCUUGCAACAGAGGAUUGAGCAUCA
B10: chr2:190436306:190436418:+|CDS|ENSG00000151690|unk|total|mutant (ssRNA)
RNA: GGGAGUUCUACAGUCCGACGAUCCCUUUUGCCUGUGUAUUACAAACAGCUGGGAAUGUCUCCAAGCCAGAGUGGACUACCCGCCGGUAUUCGUUACUUCAUUGAAUUCUGCAGUGCCCCCUUUUGGGGUGCCGUUGCAGACCGCAACAGAGGAUUGAGCAUCA
B11: chr8:100287602:100287712:-|CDS|ENSG00000034677|unk|FALSE|unique (ssRNA)
RNA: GGGAGUUCUACAGUCCGACGAUCUGUGUGGAUUGCUUACGACAAUAUUUAAGGAUAGAAAUCUCUGAAAGCAGAGUUAAUAUUAGUUGCCCAGAAUGUACUGAACGGUUUAAUCCCCAUGAUAUUCGCUUGAUAUUAAGUGAUCAACAGAGGAUUGAGCAUCA
B12: ENSG00000107863:be:win_1101|CDS|ENSG00000107863|bound_else_gene|NA|bound_elsewhere_windowed (ssRNA)
RNA: GGGAGUUCUACAGUCCGACGAUCGGCUCCCUCUGUAUCUGUUAAUCACUAUUCGCCAAAUUCCCAUCAGCACAUAGACUGGAAAAACUAUAAAACUUACAAAGAGUAUAUUGAUAACAGACGAUUGCACAUAGGUUGUCGGACCAACAGAGGAUUGAGCAUCA
B13: ENSG00000165434:stop:overlap|stop_codon|ENSG00000165434|stop_codon|NA|stop_codon (ssRNA)
RNA: GGGAGUUCUACAGUCCGACGAUCAUGCUCUGAUAGAGAAUUUUCUUCAGCCUAGUAAGAAUGGACUGAUCUGGCGUUCUGUUUAGGGGUACACCAAUAUGUCAUGACACUGUGUGGGCAUAUGGAACAGAGCAACCGAGAACUCAACAGAGGAUUGAGCAUCA
B14: chr3:48693060:48693174:-|CDS|ENSG00000068745|unk|FALSE|unique (ssRNA)
RNA: GGGAGUUCUACAGUCCGACGAUCCCUUCCAGGUGUGGUAUCUGUGCGCUUUGAAGAAGAUGAAGACAGGAACUUGUGUCUAAUAGCAUAUCCAUUGAAAGGGGACCAUGGAAUUGUGGACAUUGUAGAUAAUUCAGACUGUGACAACAGAGGAUUGAGCAUCA
B15: ENSG00000198589:be:win_1651|CDS|ENSG00000198589|bound_else_gene|NA|bound_elsewhere_windowed (ssRNA)
RNA: GGGAGUUCUACAGUCCGACGAUCUUUUCAAAAUAUCUGAGUAAUCUGCAGAAUGGGAUGCCCCUGCUCAAGCAAUUGUGUGAUCACGUUCUUCUUAAUCCUGCCAUAUGGAUUCAUACCCCAGCCAAGGUUCAACUGAUGCUCCAACAGAGGAUUGAGCAUCA
B16: chr9:35091239:35092767:-|three_prime_utr|ENSG00000165282|control|control|control (ssRNA)
RNA: GGGAGUUCUACAGUCCGACGAUCAGGCUUUCCAUUCUGCCCUCUACUCCUGACACCUGUGGCCUGGGGCCUGGUUGGGGCCAUAGCGUAUGCUGGACUCCUGGGAACUAUUGAGCUGAAGCUAGAUCUAGUGCUUCUAGGGGCCAACAGAGGAUUGAGCAUCA
B17: ENSG00000146216:stop:overlap|stop_codon|ENSG00000146216|stop_codon|NA|stop_codon (ssRNA)
RNA: GGGAGUUCUACAGUCCGACGAUCUGCUCCGCAUCUCGCGGUCCCAGCUGCAGCAGGUGUGGGCCCGGUUCACCCACAAGACCUAGGCUGGGCCCCCCCCCUCCUGGAGGGGGCAGGUGGGGGGGGGUGGGGAGCAGGCAGAGGCAACAGAGGAUUGAGCAUCA
B18: chr10:59791032:59791133:-|3pUTR|ENSG00000108091|msi1|total|mutant (ssRNA)
RNA: GGGAGUUCUACAGUCCGACGAUCUAAUCAUAAUACAGUUCUCAGAUGCAGGGAAGAAGUUUGGCAUUUAAUCAUUGAGGCUUCCGGUUUUUGAUGUGAUCAGACUGGGCCAUGUCAAACCCGGAAUUUUCACCAACAGUUCACCAACAGAGGAUUGAGCAUCA
B19: chr8:100258838:100258944:-|CDS|ENSG00000034677|unk|total|mutant (ssRNA)
RNA: GGGAGUUCUACAGUCCGACGAUCAGUGAAUUUGAGGCUCCAUCCCUCAGUGACAGUAUGCCUUCUGCCGCAGAUUCUCACUCCCGUCAUUUUUCUGAAUUCCGUUGUUCUGACCCCGAAAGCAUGAAAACUUCUUGCCGUCAUCAACAGAGGAUUGAGCAUCA
B20: ENSG00000117298:stop:overlap|stop_codon|ENSG00000117298|stop_codon|NA|stop_codon (ssRNA)
RNA: GGGAGUUCUACAGUCCGACGAUCAGGAGACAGGAACCCGAGAAGUAGCUGAAGCAGAAGCCAGCCGCAGUCCCCUUGCCACAUAGAGGCGGGCUUCUCCCAGCCAUGGUGUCCCCUCUGCCUCCCCUCCCCCGACCCUCCUGCCAACAGAGGAUUGAGCAUCA
B21: ENSG00000136271:stop:overlap|stop_codon|ENSG00000136271|stop_codon|NA|stop_codon (ssRNA)
RNA: GGGAGUUCUACAGUCCGACGAUCCUGUGCUCAACUUUGAUCUUCCCCCAACCCCUGAGGCCUACAUCCAUCGAGCUGGCAGGUAGUAGUGUGACGGCCCAGGCAUCUGCAUGGACAGCACGCGCUAACAACCCAGGCAUAGUCCAACAGAGGAUUGAGCAUCA
B22: chr20:7982266:7982367:-|CDS|ENSG00000125827|msi1|FALSE|bound_elsewhere (ssRNA)
RNA: GGGAGUUCUACAGUCCGACGAUCGAGAAGUGAGGCCAAUGAUCAGGGGCCCCCAGGAGAGGACGGUGUGACCCGGGAGGAAGUAGAGCCUGAGGAGGCUGAAGAAGGCAUCUCUGAGCAACCCUGCCCAGCUGACACAGAGGUCAACAGAGGAUUGAGCAUCA

molecular target: MSI1 full-length (mouse, UniProt Q61474 1-362); test: nsRBNS (natural sequence RNA bind-n-seq); RBNS binding buffer (assumed for nsRBNS): 25 mM Tris pH 7.5, 150 mM KCl, 3 mM MgCl2, 0.01% Triton X-100, 500 ug/ml BSA, 20 U/ml SUPERase-In, 4 C; UNK is unkempt and MSI1 is Musashi-1; names of the RNAs are library labels; protein concentration not given here; high values mean tight binding
Chain of UniProt Q61474 (Q61474 whole entry): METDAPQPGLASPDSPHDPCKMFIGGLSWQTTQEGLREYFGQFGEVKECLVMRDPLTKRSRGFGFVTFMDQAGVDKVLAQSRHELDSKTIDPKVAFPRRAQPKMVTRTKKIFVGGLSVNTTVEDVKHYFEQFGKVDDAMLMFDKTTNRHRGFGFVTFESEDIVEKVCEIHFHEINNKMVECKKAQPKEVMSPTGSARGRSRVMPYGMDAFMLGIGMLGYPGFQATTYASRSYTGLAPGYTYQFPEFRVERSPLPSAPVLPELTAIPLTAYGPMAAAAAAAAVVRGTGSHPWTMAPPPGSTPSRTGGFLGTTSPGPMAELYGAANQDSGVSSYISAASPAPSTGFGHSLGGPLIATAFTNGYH

| Binder | binding signal |
| --- | --- |
| B1 | 0.5 enrichment R |
| B2 | 0.499 enrichment R |
| B3 | 0.295 enrichment R |
| B4 | 0.42 enrichment R |
| B5 | 8.08 enrichment R |
| B6 | 0.718 enrichment R |
| B7 | 0.493 enrichment R |
| B8 | 2.72 enrichment R |
| B9 | 0.27 enrichment R |
| B10 | 0.266 enrichment R |
| B11 | 22.4 enrichment R |
| B12 | 0.851 enrichment R |
| B13 | 0.608 enrichment R |
| B14 | 0.68 enrichment R |
| B15 | 0.323 enrichment R |
| B16 | 1.5 enrichment R |
| B17 | 0.353 enrichment R |
| B18 | 0.459 enrichment R |
| B19 | 0.396 enrichment R |
| B20 | 0.606 enrichment R |
| B21 | 0.299 enrichment R |
| B22 | 0.527 enrichment R |
